Assay results: PubChem BioAssay AID2101 (National Center for Advancing Translational Sciences (NCATS), 2009)
Values joined by “and” are separate entries in the source; they are usually repeats but may differ in a detail not shown here. Identical values can stand only once. The whole screen tested about 330,000 compounds, of which about 300 (0.091%) were called active. Inconclusive results (about 4%) are left out. Calls come from the whole dose curve; as a rule, active = well fitted inhibition curve with a large enough effect; inconclusive = small, poorly fitted or top-dose-only effect, or effect the other way, or another doubt; inactive = no such curve, though single readings can be large or run the other way. This is a selection; strong and weak results do not stand in their true shares.

These compounds were tested against Lysosomal acid glucosylceramidase (Homo sapiens) (UniProt P04062) (assay: qHTS Assay for Inhibitors and Activators of N370S glucocerebrosidase as a Potential Chaperone Treatment of Gaucher Disease). Conditions: N370S GC spleen homogenate, 4MU-glucoside fluorescence; series mostly up to 59.4 µM; activity change, negative = inhibition: at the top concentration.
Potency is the fitted concentration of half-maximal effect.
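Throughout, for activity change, negative = inhibition: 0% = full enzyme activity and -100% = no enzyme basal.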

Row | Compound | Potency | activity change, negative = inhibition
1 | Nc1nc2ncc(CNc3ccc(C(=O)N[C@@H](CCC(=O)O)C(=O)O)cc3)nc2c(=O)[nH]1 | inactive | –
2 | N#C/C(=C\c1ccc(N2CCOCC2)o1)C(=O)N1CCOCC1 | – | inactive: -15.5%
3 | CC(C)(C)[C@@H]1C=C(C(=O)N2CCN(Cc3ccc4c(c3)OCO4)CC2)O[C@H](OCc2ccc(CO)cc2)C1 | – | inactive: -8.05%
4 | CCCC[C@H](CC)CN=C(N)NC(N)=NCCCCCCN=C(N)NC(N)=NC[C@@H](CC)CCCC | – | inactive: -11.1% [at 21.6 µM]
5 | COc1cc([C@@H]2Oc3cc(C4Oc5cc(O)cc(O)c5C(=O)[C@H]4O)ccc3O[C@H]2CO)ccc1O (some centres not stated) | – | inactive: -17.3%
6 | Ic1ccc(N2CCN(Cc3c[nH]c4ncccc34)CC2)cc1 | inactive | –
7 | O=C(NCc1ccccc1)C1=C[C@@H](c2ccc(Br)cc2)C[C@@H](OCc2ccc(CO)cc2)O1 | – | inactive: 26.5%
8 | C[C@H](CO)NC(=O)[C@H](C)[C@H]1C[C@]1(C)[C@H](NC(=O)OCc1ccccc1)c1ccccc1 | – | inactive: -5.75%
9 | COC(=O)C1C(O)CC[C@@H]2CN3CCc4c([nH]c5ccccc45)C3C[C@@H]12 (some centres not stated) | inactive | –
10 | NS(=O)(=O)c1cc2c(cc1Cl)NC(C1CC3C=CC1C3)NS2(=O)=O (configuration not stated) | inactive | –
11 | CCc1cc(C(c2ccccn2)N2CCN(C)CC2)c(NC(=O)c2ccccc2)s1 (configuration not stated) | active: 14.1 µM | –
12 | NC1=NC[C@@H](Cc2ccc(O)cc2)N1CCCCC1CCCCC1 | – | inactive: -28.7%
13 | CCCCCCCCCC(=O)N[C@H](CN1CCOCC1)[C@H](O)c1ccccc1 | inactive | –
14 | CCOC(=O)[C@@H]1[C@H]2COc3ccccc3[C@@H]2N2C(=O)N(c3cccc(Cl)c3)C(=O)[C@]12C | – | inactive: -2.47%
15 | C[C@@H](C(=O)Nc1ccc2ccccc2c1)[C@H]1C[C@]1(C)[C@H](NC(=O)Oc1ccc(F)cc1)c1ccccc1 | – | inactive: -2.37%
16 | C#CCOCCOCCOCCNc1nc(N2CCN(C(=O)CCCCCCCCCCNC(=O)[C@H](CCCCN)n3cc(CCO)nn3)CC2)nc(N2CCN(C(=O)CCCCCCCCCCNC(=O)[C@H](CCCCN)n3cc(C[C@@H](C)CC)nn3)CC2)n1 | active: 14.1 µM | –
17 | CCC(C)[C@H](NC(=O)N1CC(=O)Nc2ccccc21)C(=O)N1CCC[C@H]1C(=O)O (some centres not stated) | – | inactive: 1.22%
18 | Cc1ccccc1OCC(O)Cn1c(=N)n(CCN2CCOCC2)c2ccccc21 (configuration not stated) | – | inactive: 2.78%
19 | NC(Cc1cc(I)c(Oc2ccc(O)c(I)c2)c(I)c1)C(=O)O (configuration not stated) | – | inactive: 3.66%
20 | Oc1ccc(-c2nc(-c3ccc(F)cc3)c(-c3ccncc3)[nH]2)cc1 | inactive | –
21 | O=C(O)c1ccc2c(c1)C(=O)N([C@H](Cc1ccc(O)cc1)C(=O)O)C2=O | – | inactive: -2.13%
22 | CN1CCN(CCC=C2c3ccccc3Sc3ccc(S(=O)(=O)N(C)C)cc32)CC1 | inactive | –
23 | COC(=O)[C@@]1(Cc2ccc(F)cc2)[C@H]2c3cc(C(=O)N(C)C)n(CCc4ccc(OC)c(Br)c4)c3C[C@H]2CN1C(=O)c1ccccc1 | – | inactive: -16.4%
24 | O=C(C1=C[C@H](c2csc3ccccc23)C[C@H](OCc2ccc(CO)cc2)O1)N1CCN(Cc2ccccc2)CC1 | – | inactive: 23.2%
25 | CCCN1CCC(=O)N(C(CSc2ccc(C)cc2)Cc2ccccc2)CC1 (configuration not stated) | – | inactive: -17.3%
26 | COc1cc2ncnc(Nc3cccc(Cl)c3)c2cc1OC | inactive | –

Row | Compound | Potency | activity change, negative = inhibition
27 | COc1c(O)cc2oc(-c3ccc(O)c(O)c3)cc(=O)c2c1O | – | inactive: -12.6%
28 | CCCCC[C@H](O)/C=C/[C@@H]1[C@H]2C/C(=C/CCCC(=O)O)C[C@H]2C[C@H]1O | inactive | –
29 | CO[C@@H]1C=CO[C@]2(C)Oc3c(C)c(O)c4c(O)c(c(C=NN5CCN(C)CC5)c(O)c4c3C2=O)NC(=O)C(C)=CC=C[C@H](C)[C@H](O)[C@H](C)[C@H](O)[C@H](C)[C@H](OC(C)=O)[C@H]1C | – | inactive: 6.99% [at 21.6 µM]
30 | CC[C@H](C)[C@@H]1O[C@]2(CC[C@@H]1C)C[C@H]1C[C@H](CC=C(C)[C@@H](O[C@@H]3C[C@H](OC)[C@H](O[C@@H]4C[C@H](OC)[C@H](O)[C@H](C)O4)[C@H](C)O3)[C@@H](C)C=CC=C3CO[C@@H]4[C@@H](O)C(C)=C[C@@H](C(=O)O1)[C@]34O)O2 | – | inactive: -8.47% [at 21.6 µM]
31 | COc1ccc(O[C@H]2C=C[C@@H](c3ccccc3)O[C@H]2COC(=O)CC/C(C)=N\O[C@@H](C)CN2CCCCc3nc(C)c(C)cc32)cc1 | – | inactive: -18.2% [at 12.8 µM]
32 | O=c1cc(-c2ccccc2)oc2cc(O)c(O)c(O)c12 | inactive | –
33 | O=c1[nH]c2cc(C(F)(F)F)ccc2n1-c1cc(C(F)(F)F)ccc1O | inactive | –
34 | C#Cc1ccc([C@H]2C=C(C(=O)N3CCN(Cc4ccc5c(c4)OCO5)CC3)O[C@@H](OCC)[C@@H]2CCCO)cc1 | – | inactive: 3.13%
35 | COC(=O)C1=C(C)NC(C)=C(C(=O)OCCCN2CCC(c3ccccc3)(c3ccccc3)CC2)C1c1cccc([N+](=O)[O-])c1 (configuration not stated) | – | inactive: -28.3%
36 | C/C=C/CC(C)C(O)C1C(=O)NC(CC)C(=O)N(C)CC(=O)N(C)C(CC(C)C)C(=O)NC(C(C)C)C(=O)N(C)C(CC(C)C)C(=O)NC(C)C(=O)NC(C)C(=O)N(C)C(CC(C)C)C(=O)N(C)C(CC(C)C)C(=O)N(C)C(C(C)C)C(=O)N1C (configuration not stated) | inactive | –
37 | COc1cc2nc(N3CCN(C(=O)[C@@H]4CCCO4)CC3)nc(N)c2cc1OC | – | inactive: 23.9% [at 21.6 µM]
38 | C/C=C\C[C@H](C)[C@H](O)[C@H]1C(=O)N[C@@H](CC)C(=O)N(C)CC(=O)N(C)[C@@H](CC(C)C)C(=O)N[C@@H](C(C)C)C(=O)N(C)[C@@H](CC(C)C)C(=O)N[C@@H](C)C(=O)N[C@@H](C)C(=O)N(C)[C@@H](CC(C)C)C(=O)N(C)[C@@H](CC(C)C)C(=O)N(C)[C@@H](C(C)C)C(=O)N1C | – | inactive: 1.02% [at 21.6 µM]
39 | O=c1c(O[C@@H]2O[C@H](CO)[C@@H](O)[C@H](O)[C@H]2O)c(-c2ccc(O)c(O)c2)oc2cc(O)cc(O)c12 | – | inactive: -15%
40 | COC(=O)[C@@H]1C[C@H]2CC[C@H](O)C[C@H]2N1Cc1ccc(Cl)cc1 | inactive | –
41 | O=C(c1ccc(Br)o1)N(Cc1ccccc1)Cc1ccccc1 | – | inactive: 1.79% [at 89.1 µM]
42 | COc1cccc(Nc2nc(-c3cccs3)nc3ccccc23)c1 | active: 12.6 µM | –
43 | OC(COC(c1ccc(Cl)cc1)c1ccc(Cl)cc1)CN1CCc2ccccc2C1 (configuration not stated) | active: 7.94 µM | –
44 | CCC[C@@H]1O[C@@H]2C[C@@H]3[C@H]4CCC5=CC(=O)C=C[C@@]5(C)[C@H]4[C@H](O)C[C@@]3(C)[C@@]2(C(=O)CO)O1 | – | inactive: -2.44% [at 21.6 µM]
45 | C[C@H]1O[C@@H](n2cc(F)c(=O)[nH]c2=O)[C@H](O)[C@@H]1O | – | inactive: 2.82%
46 | COc1cc(CNCCc2c[nH]c3ccccc23)ccc1OCc1ccc(F)cc1 | active: 15.8 µM | –
47 | C[C@H](CO)NC(=O)[C@H](C)[C@@H]1C[C@@]1(C)[C@@H](NC(=O)OCc1ccccc1)c1ccccc1 | inactive | –
48 | OC(c1cc(C(F)(F)F)nc2c(C(F)(F)F)cccc12)C1CCCCN1 (configuration not stated) | – | inactive: -17.5%
49 | COc1c(O)cc2oc(-c3ccc(O)cc3)cc(=O)c2c1O | – | inactive: -15.6%
50 | CNCCCC12CCC(c3ccccc31)c1ccccc12 | inactive | –
51 | CC1OC(n2cc(F)c(=O)[nH]c2=O)C(O)C1O (configuration not stated) | – | inactive: 0.197%
52 | CCCCN(CCCC)CCC(O)c1cc2c(Cl)cc(Cl)cc2c2cc(C(F)(F)F)ccc12 (configuration not stated) | – | inactive: -7.36% [at 21.6 µM]

Row | Compound | Potency | activity change, negative = inhibition
53 | NC(N)=N/N=C/c1ccc(OCc2ccccc2)c(OCc2ccccc2)c1 | active: 11.2 µM | –
54 | CN1[C@@H]2CC[C@H]1CC(OC(=O)c1c[nH]c3ccccc13)C2 (some centres not stated) | – | inactive: -6.83%
55 | c1csc(CNc2nc(-c3cccs3)nc3ccccc23)c1 | active: 17.8 µM | –
56 | O=C1CN(/N=C/c2ccc(-c3ccc([N+](=O)[O-])cc3)o2)C(=O)N1 | – | inactive: -6.76%
57 | C[C@@H](CN1c2ccccc2Sc2ccccc21)N(C)C | – | inactive: -2.22% [at 21.6 µM]
58 | CC1(C)S[C@@H]2[C@H](NC(=O)[C@H](C(=O)O)c3ccsc3)C(=O)N2[C@H]1C(=O)O | – | inactive: -1.61% [at 21.6 µM]
59 | c1cncc(-c2nc(NCc3cccs3)c3ccccc3n2)c1 | – | inactive: -24.1%
60 | c1ccc(C2[C@H]3CN(Cc4cccnc4)[C@H](c4ccccc4)C34CC2(c2cccnc2)C4)cc1 (some centres not stated) | – | inactive: -13%
61 | NC(=NCCCCCCN=C(N)/N=C(\N)Nc1ccc(Cl)cc1)/N=C(\N)Nc1ccc(Cl)cc1 | active: 1.58 µM and active: 6.31 µM | –
62 | O=C1c2ccccc2C(=O)C1c1ccc2ccccc2n1 | – | inactive: 0.192%
63 | CC(C)C[C@H](NC(=O)c1[nH]cnc1C(=O)N[C@@H](C)c1ccccc1)C(=O)OC(C)(C)C | – | inactive: 16.7%
64 | OC(COc1cccc2ccccc12)CN1CCN(c2ccc(Cl)cc2)CC1 (configuration not stated) | – | inactive: -0.0516%
65 | O=C(NCCN1CCOCC1)c1ccc2c(c1)N(Cc1ccccc1F)C(=O)c1ccccc1S2 | active: 10 µM | –
66 | Cc1ccc(CN2CCN(/N=C\C(Br)=C\c3ccccc3)CC2)cc1 | – | inactive: -21.2%
67 | Cc1ccc(NS(=O)(=O)c2ccc(N3CCN(c4ccc(O)cc4)CC3)c([N+](=O)[O-])c2)c(C)c1 | active: 14.1 µM | –
68 | O=C(Nc1cccc(Cl)c1)OCCN1CCN(Cc2ccccc2)CCC1=O | – | inactive: -24.5%
69 | CCOc1ccc(N(CC(=O)Nc2ccccc2F)S(=O)(=O)c2c(C)[nH]c(=O)[nH]c2=O)cc1 | active: 3.16 µM | –
70 | COC(=O)[C@H]1[C@H]2C[C@H]3c4[nH]c5ccccc5c4CCN3C[C@@H]2CC[C@@H]1O | inactive | –
71 | COC(=O)[C@H](C)[C@@H]1C[C@@]1(C)[C@@H](NC(=O)OCc1ccccc1)c1ccccc1 | – | inactive: -3.14%
72 | COc1cc(Cl)ccc1NC(=S)N(CCCN1CCOCC1)Cc1cn(C)c2ccccc12 | active: 7.08 µM | –
73 | CN(C)CCCN1c2ccccc2Sc2ccccc21 | inactive | –
74 | Cc1cc(C(C)(C)C)c(O)c(C)c1CC1=NCCN1 | inactive | –
75 | COc1cc2c(cc1O)CCC1C2CC[C@@]2(C)C1CC[C@@H]2O (some centres not stated) | – | inactive: -7.58%
76 | CC1C(=O)OC2C(O)C34C5CC(C(C)(C)C)C36C(OC(=O)C6O)OC4(C(=O)O5)C12O (configuration not stated) | – | inactive: -3.94%
77 | COc1ccc(C[C@H]2CN3C(=NC[C@H]3Cc3ccccc3)N2CCNC(=O)c2ccc(C)c(Br)c2)cc1 | – | inactive: -28.8%
